Consider 64 molecules from the supplement of paper PMC12582362.

Structures can show the parent of a compound that is named as a salt. Hit rate of the full screen: of about 1,500 compounds, about 30 (2%) showed activity.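 How the source made its calls: active = robust z-score below -2; a few such results were not called.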 The list shows a part of the results.

This experiment deals with optoTopBP1 Flp-In 293 T-REx (HEK293) cells. The experiment is described as follows: light-induced TopBP1 condensate (nuclear foci) count, plate-normalised robust z-score vs non-control wells; higher = more TopBP1 condensates (negative = condensation inhibitor), active = hit call of the paper. To be noted: 10 µM; incubation time 2 h.
Take `CN(Cc1cnc2nc(N)nc(N)c2n1)c1ccc(C(=O)N[C@@H](CCC(=O)O)C(=O)O)cc1` (racemic) [Amethopterin (R,S)]: the “light-induced TopBP1 condensate (z-score)” value is inactive: 1.13.
For `CC(C)(C)CC(C)(C)c1ccc(O)c(Cc2ccc(Cl)cc2Cl)c1` [Clofoctol], the “light-induced TopBP1 condensate (z-score)” value is inactive: 0.817.
Then `CCOC(=O)c1ccc(N)cc1` [Benzocaine], with inactive: 0.302; and `OC(CCCN1CCCCC1)(c1ccccc1)c1ccccc1` [Diphenidol hydrochloride], with inactive: -1.33; and `CCN(CC)CCOC(=O)C(c1ccccc1)c1ccccc1` [Adiphenine hydrochloride], with inactive: 1.26.
Then `C[C@]12CC[C@@H]3c4ccc(OS(=O)(=O)O)cc4CC[C@H]3[C@@H]1CCC2=O` [Estropipate], with inactive: 0.596; and `Cc1ccc(S(=O)(=O)NC(=O)NN2CCCCCC2)cc1` [Tolazamide], with inactive: -1.32.
Then `COc1cccc(OC)c1C(=O)N[C@@H]1C(=O)N2[C@@H]1SC(C)(C)[C@@H]2C(=O)O` [Methicillin sodium], with inactive: 0.167; and `C=CCSCC1Nc2cc(Cl)c(S(N)(=O)=O)cc2S(=O)(=O)N1` (centres undefined) [Althiazide], with inactive: 0.873; and `c1ccc(CN(CC2=NCCN2)c2ccccc2)cc1` [Antazoline hydrochloride], with inactive: -0.424.
Turning to `CN(C)CC/C=C1/c2ccccc2COc2ccc(CC(=O)O)cc21` [Olopatadine hydrochloride], the “light-induced TopBP1 condensate (z-score)” value was inactive: 0.52.
Then `CC(C(=O)O)c1ccc(C(=O)c2ccccc2)s1` (centres undefined) [Tiaprofenic acid], with inactive: 0.311; and `NC(=O)NS(=O)(=O)c1ccc(N)cc1` [Sulfacarbamide], with inactive: 0.466.
With `CC(=O)N(CC(O)CN(C(C)=O)c1c(I)c(C(=O)NCC(O)CO)c(I)c(C(=O)NCC(O)CO)c1I)c1c(I)c(C(=O)NCC(O)CO)c(I)c(C(=O)NCC(O)CO)c1I` (centres undefined) [Iodixanol] the figure was inactive: 0.289; with `C#C[C@]1(O)CC[C@H]2[C@@H]3CCC4=CC(=O)CC[C@@H]4[C@H]3CC[C@@]21CC` [Norgestrel-(-)-D], inactive: -0.564; with `N=C(N)NCCN1CCCCCCC1` [Guanethidine sulfate], inactive: -0.799.
Turning to `CC1(C)[C@@H](OC(=O)CCC(=O)O)CC[C@]2(C)[C@H]3C(=O)C=C4[C@@H]5C[C@@](C)(C(=O)O)CC[C@]5(C)CC[C@@]4(C)[C@]3(C)CC[C@@H]12` [Carbenoxolone disodium salt], the “light-induced TopBP1 condensate (z-score)” value was inactive: -0.148.
Then `CC(CN(C)C)CN1c2ccccc2Sc2ccccc21` (centres undefined) [Trimeprazine tartrate], with inactive: 0.00204; and `C=CCOC(Cn1ccnc1)c1ccc(Cl)cc1Cl` (centres undefined) [Enilconazole], with inactive: 0.833; and `C[C@]1(Cn2ccnn2)[C@H](C(=O)O)N2C(=O)C[C@H]2S1(=O)=O` [Tazobactam], with inactive: 0.146.
Regarding `CC(CN(C)C)C(C)(O)Cc1ccc(Cl)cc1` (centres undefined) [Clobutinol hydrochloride], the “light-induced TopBP1 condensate (z-score)” value was inactive: 0.904.
On to `CC[C@@H](CO)NCCN[C@@H](CC)CO` [Ethambutol dihydrochloride], for which the “light-induced TopBP1 condensate (z-score)” value was inactive: 1.17.
With `CC(=O)OCC(=O)[C@@]1(OC(C)=O)[C@@H](C)C[C@H]2[C@@H]3C[C@H](F)C4=CC(=O)C=C[C@]4(C)[C@@]3(F)[C@@H](O)C[C@@]21C` [Diflorasone Diacetate] the figure was inactive: -0.789; with `CCN(CC)CCOCCOC(=O)C(CC)(CC)c1ccccc1` [Oxeladin citrate], inactive: 0.047.
For `CCCOc1ccc(C(=O)OCCN(CC)CC)cc1N` [Proparacaine hydrochloride], the “light-induced TopBP1 condensate (z-score)” value was inactive: -0.35.
For `NC1CCN(c2nc3c(cc2F)c(=O)c(C(=O)O)cn3-c2ccc(F)cc2F)C1` (centres undefined) [Tosufloxacin hydrochloride], the “light-induced TopBP1 condensate (z-score)” value was inactive: 0.531.
`COC(=O)Nc1nc2cc([S+]([O-])c3ccccc3)ccc2[nH]1` (centres undefined) [Oxfendazol]: the “light-induced TopBP1 condensate (z-score)” value was inactive: 0.733.
Regarding `COc1ccccc1OCC(O)COC(N)=O` (centres undefined) [Methocarbamol], the “light-induced TopBP1 condensate (z-score)” value is inactive: 0.0481.
Then `Cc1cc(N)c2ccccc2[n+]1CCCCCCCCCC[n+]1c(C)cc(N)c2ccccc21` [Dequalinium dichloride], with inactive: 0.523.
For the molecule `Nc1ccn([C@@H]2CS[C@H](CO)O2)c(=O)n1` [Lamivudine], the “light-induced TopBP1 condensate (z-score)” value was inactive: 0.279.
With `CO/N=C(\C(=O)N[C@@H]1C(=O)N2C(C(=O)OC(C)OC(C)=O)=C(COC(N)=O)CS[C@H]12)c1ccco1` (some centres undefined) [Cefuroxime axetil], the “light-induced TopBP1 condensate (z-score)” value was inactive: -0.531.
With `NC(=O)[C@@H]1CCCN1C(=O)[C@H](Cc1c[nH]cn1)NC(=O)[C@@H]1CCC(=O)N1` [Thyrotropin-Releasing Hormone] the figure was inactive: 0.478.
For the molecule `CCOC(=O)[C@@](C)(N)Cc1ccc(O)c(O)c1` [Methyldopate hydrochloride], the “light-induced TopBP1 condensate (z-score)” value is inactive: -0.519.
Regarding `O=C(c1ccccc1)c1ccc2n1CCC2C(=O)O` (centres undefined) [Ketorolac tromethamine], the “light-induced TopBP1 condensate (z-score)” value is inactive: -0.884.
Then `COc1c(N2CCNC(C)C2)c(F)cc2c(=O)c(C(=O)O)cn(C3CC3)c12` (centres undefined) [Gatifloxacin], with inactive: -0.00416; and `CN1Cc2c(N)cccc2C(c2ccccc2)C1` (centres undefined) [Nomifensine maleate], with inactive: 0.0656; and `CCN[C@@H]1C[C@H](N)[C@@H](O[C@H]2OC(CN)=CC[C@H]2N)[C@H](O)[C@H]1O[C@H]1OC[C@](C)(O)[C@H](NC)[C@H]1O` [Netilmicin sulfate], with inactive: 0.0588.
As to `CC(C)(O)c1ccccc1CC[C@@H](SCC1(CC(=O)O)CC1)c1cccc(/C=C/c2ccc3ccc(Cl)cc3n2)c1` [Montelukast], the “light-induced TopBP1 condensate (z-score)” value was inactive: 0.412.
With `c1ccc(CNc2ncnc3nc[nH]c23)cc1` [Aminopurine, 6-benzyl] the figure was inactive: 0.088.
With `Oc1c(Br)cc(Br)c2cccnc12` [Broxyquinoline] the figure was inactive: 0.239; with `CC(=O)[C@@]12O[C@](C)(c3ccccc3)O[C@@H]1C[C@H]1[C@@H]3CCC4=CC(=O)CC[C@]4(C)[C@H]3CC[C@@]12C` [Algestone acetophenide], inactive: -1.65; with `C[C@]12CCC(=O)C=C1CC[C@@H]1[C@@H]2C(=O)C[C@@]2(C)[C@H]1CC[C@]2(O)C(=O)CO` [Cortisone], inactive: -0.797.
With `COC(=O)[C@H](c1ccccc1Cl)N1CCc2sccc2C1` [Clopidogrel] the figure was inactive: -0.757; with `COCCCC/C(=N\OCCN)c1ccc(C(F)(F)F)cc1` [Fluvoxamine maleate], inactive: -0.179; with `C[C@H](N[C@@H](CCc1ccccc1)C(=O)O)C(=O)N1CCC[C@H]1C(=O)O` [Enalaprilat dihydrate], inactive: -0.886.
For the molecule `CN(C)[C@@H]1C(O)=C(C(N)=O)C(=O)[C@@]2(O)C(O)=C3C(=O)c4c(O)cccc4[C@@](C)(O)[C@H]3C[C@@H]12` [Tetracycline hydrochloride], the “light-induced TopBP1 condensate (z-score)” value is inactive: 0.0489.
Then `Cc1ccc(N(CC2=NCCN2)c2cccc(O)c2)cc1` [Phentolamine hydrochloride], with inactive: -0.948; and `CCc1ccc(CCOc2ccc(CC3SC(=O)NC3=O)cc2)nc1` (centres undefined) [Pioglitazone], with inactive: -0.504; and `Cc1c(Cl)cccc1Nc1ccccc1C(=O)O` [Tolfenamic acid], with inactive: -0.245.
Turning to `CO[C@H]1/C=C/O[C@@]2(C)Oc3c(C)c(O)c4c(O)c(c(/C=N/N5CCN(C)CC5)c(O)c4c3C2=O)NC(=O)/C(C)=C\C=C\[C@H](C)[C@H](O)[C@@H](C)[C@@H](O)[C@@H](C)[C@H](OC(C)=O)[C@@H]1C` [Rifampicin], the “light-induced TopBP1 condensate (z-score)” value is inactive: 0.31.
With `CC(C(=O)O)c1ccc(CC2CCCC2=O)cc1` (centres undefined) [loxoprofen] the figure was inactive: 0.426; with `CC[C@H]1OC(=O)[C@H](C)[C@@H](O[C@H]2C[C@@](C)(OC)[C@@H](O)[C@H](C)O2)[C@H](C)[C@@H](O[C@@H]2O[C@H](C)C[C@H](N(C)C)[C@H]2O)[C@](C)(O)C[C@@H](C)C(=O)[C@H](C)[C@@H](O)[C@]1(C)O` [Erythromycin], inactive: -0.359; with `OCCN1CCN(CCCN2c3ccccc3Sc3ccc(C(F)(F)F)cc32)CC1` [Fluphenazine dihydrochloride], inactive: -1.16.
Then `CC(C)(Oc1ccc(CCNC(=O)c2ccc(Cl)cc2)cc1)C(=O)O` [Bezafibrate], with inactive: 0.847; and `c1ccc(CC2=NCCN2)cc1` [Tolazoline hydrochloride], with inactive: -0.561; and `O=C1c2ccccc2C(=O)C1c1ccccc1` [Phenindione], with inactive: -0.545.
With `Clc1ccc2c(c1)C(N1CCNCC1)=Nc1ccccc1O2` [Amoxapine] the figure was inactive: -0.889; with `C[C@H](NCc1ccc(OCc2cccc(F)c2)cc1)C(N)=O` [Safinamide], inactive: -0.127; with `CCn1cc(C(=O)O)c(=O)c2cc(F)c(N3CCNCC3)nc21` [Enoxacin], inactive: 0.168.
Take `CC(=O)OCC(=O)NCCCOc1cccc(CN2CCCCC2)c1` [Roxatidine Acetate hydrochloride]: the “light-induced TopBP1 condensate (z-score)” value was inactive: 1.
As to `CCCc1ncc(C[n+]2ccccc2C)c(N)n1` [Amprolium hydrochloride], the “light-induced TopBP1 condensate (z-score)” value was inactive: -0.31.
Then `CC(C(=O)O)c1cccc(Oc2ccccc2)c1` (centres undefined) [Fenoprofen calcium salt dihydrate], with inactive: 0.527; and `Oc1ccc(C2CNCCc3c2cc(O)c(O)c3Cl)cc1` (centres undefined) [Fenoldopam], with inactive: -0.865; and `CC(C)=CCOc1ccc(/C=C/C(=O)c2ccc(OCC=C(C)C)cc2OCC(=O)O)cc1` [Sofalcone], with inactive: 0.373.
